Assay results: PubChem BioAssay (NCI)
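Compound exposure: 48 hours, 5 concentrations, 96-well plates. GI50 is the concentration that inhibits growth by half.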 Certain results were filed several times, with different values. They are shown here; other results are not. The source may hold further records. Results that share an entry repeat one measurement (runs, samples, wells, individuals or studies).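 TGI: concentration producing complete growth inhibition.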 Records carry a tag for their origin. Letters count within one entry.

Key:
Experiment in all cases: NCI-60 cell line screen, 48 h
TK-10 renal = system: TK-10 renal
786-0 renal = system: 786-0 renal
UACC-257 melanoma = system: UACC-257 melanoma
PC-3 prostate = system: PC-3 prostate
SK-MEL-28 melanoma = system: SK-MEL-28 melanoma
KM12 colon = system: KM12 colon
HOP-92 NSCLC = system: HOP-92 NSCLC
LOX IMVI melanoma = system: LOX IMVI melanoma
DU-145 prostate = system: DU-145 prostate
HCC-2998 colon = system: HCC-2998 colon
CAKI-1 renal = system: CAKI-1 renal
BT-549 breast = system: BT-549 breast
RXF 393 renal = system: RXF 393 renal
EKVX NSCLC = system: EKVX NSCLC
SF-539 CNS = system: SF-539 CNS
NCI-H522 lung = system: NCI-H522 lung
SK-OV-3 ovarian = system: SK-OV-3 ovarian
MDA-MB-435 = system: MDA-MB-435
IGROV1 ovarian = system: IGROV1 ovarian
COLO 205 colon = system: COLO 205 colon
A549 NSCLC = system: A549 NSCLC
M14 melanoma = system: M14 melanoma
SR leukemia = system: SR leukemia
UO-31 renal = system: UO-31 renal
MOLT-4 leukemia = system: MOLT-4 leukemia
SK-MEL-2 melanoma = system: SK-MEL-2 melanoma
U251 CNS = system: U251 CNS
A498 renal = system: A498 renal
MCF7 breast = system: MCF7 breast
HS 578T breast = system: HS 578T breast
HL-60(TB) leukemia = system: HL-60(TB) leukemia
MDA-MB-231 breast = system: MDA-MB-231 breast
MALME-3M melanoma = system: MALME-3M melanoma
SF-268 CNS = system: SF-268 CNS

COc1c(OCCCN2CCOCC2)ccc2c3n(c(=NC(=O)c4cnc(N)nc4)nc12)CCN3
GI50 (TK-10 renal): 27.4 nM [1 test] and < 15.7 nM, < 16.1 nM, < 13 nM [mean of 2 tests]
TGI (786-0 renal): > 75 µM [sample A, mean of 2 tests] and 2.64 µM [sample B, 1 test] and > 100 µM [sample C, 1 test]
TGI (UACC-257 melanoma): > 55.8 µM [sample A, mean of 2 tests] and 719 nM [sample B, mean of 2 tests] and 2.6 µM [sample C, 1 test]
GI50 (PC-3 prostate): 77.7 nM [1 test] and 38.1 nM, 25.7 nM, 24.6 nM [mean of 2 tests]
GI50 (SK-MEL-28 melanoma): 97.3 nM [1 test] and 45.5 nM, 86.4 nM, 28.9 nM [mean of 2 tests]
TGI (KM12 colon): > 10 µM, 4.26 µM [1 test] and > 29.8 µM, 3.11 µM [mean of 2 tests]
GI50 (HOP-92 NSCLC): 10.3 nM [1 test] and 11.2 nM, < 10.7 nM, < 10 nM [mean of 2 tests]
TGI (HOP-92 NSCLC): 140 nM [1 test] and 434 nM, < 28.9 nM, 143 nM [mean of 2 tests]
TGI (LOX IMVI melanoma): > 10 µM, 1.55 µM [1 test] and 9.48 µM, 1.67 µM [mean of 2 tests]
GI50 (DU-145 prostate): 195 nM, 219 nM [1 test] and 66.8 nM, 43.7 nM [mean of 2 tests]
GI50 (HCC-2998 colon): 162 nM [1 test] and 71.5 nM, 79.1 nM, 52.8 nM [mean of 2 tests]
TGI (HCC-2998 colon): > 10 µM [1 test] and 5.17 µM, 1.31 µM, 1.41 µM [mean of 2 tests]
GI50 (CAKI-1 renal): 66.5 nM [1 test] and 67.2 nM, 93.5 nM, 29.9 nM [mean of 2 tests]
GI50 (BT-549 breast): 169 nM [1 test] and 61.7 nM, 74.6 nM, 36.7 nM [mean of 2 tests]
TGI (BT-549 breast): 5.77 µM [1 test] and 690 nM, 1.42 µM, 2.18 µM [mean of 2 tests]
GI50 (RXF 393 renal): 102 nM [1 test] and 49.7 nM, 68.5 nM, 22.6 nM [mean of 2 tests]
TGI (RXF 393 renal): 425 nM [1 test] and 319 nM, 435 nM, 145 nM [mean of 2 tests]
GI50 (EKVX NSCLC): 86.3 nM [1 test] and 42.7 nM, 45 nM, 18.2 nM [mean of 2 tests]
TGI (EKVX NSCLC): > 35 µM [sample A, mean of 2 tests] and 930 nM [sample B, mean of 2 tests] and 2.71 µM [sample C, 1 test]
GI50 (SF-539 CNS): 128 nM [1 test] and 52.7 nM, 64 nM, 37.5 nM [mean of 2 tests]
TGI (NCI-H522 lung): > 10 µM [1 test] and > 75 µM, 2.72 µM, > 100 µM [mean of 2 tests]
GI50 (SK-OV-3 ovarian): 8.45 nM, < 10 nM [1 test] and 9.66 nM, < 14.4 nM [mean of 2 tests]
TGI (MDA-MB-435): > 10 µM [1 test] and > 75 µM, 2.33 µM, 2.25 µM [mean of 2 tests]
GI50 (IGROV1 ovarian): 12.8 nM, 6.69 nM [1 test] and 7.5 nM, < 10 nM [mean of 2 tests]
TGI (COLO 205 colon): 1.59 µM, 1.4 µM [1 test] and > 75 µM, 1.89 µM [mean of 2 tests]
GI50 (A549 NSCLC): 29 nM, 92.4 nM [1 test] and 43.6 nM, 35.9 nM [mean of 2 tests]
TGI (A549 NSCLC): 826 nM, > 10 µM [1 test] and > 75 µM, > 100 µM [mean of 2 tests]
TGI (M14 melanoma): > 10 µM [1 test] and > 75 µM, 1.78 µM, 2.15 µM [mean of 2 tests]
TGI (SR leukemia): > 75 µM [sample A, mean of 2 tests] and 7.26 µM [sample B, 1 test] and > 10 µM [sample C, 1 test]
TGI (UO-31 renal): > 75 µM [sample A, 1 test] and > 100 µM [sample B, mean of 2 tests] and 730 nM [sample C, 1 test]
TGI (MOLT-4 leukemia): > 75 µM [sample A, mean of 2 tests] and 3.92 µM [sample B, mean of 2 tests] and > 10 µM [sample C, 1 test]
TGI (SK-MEL-2 melanoma): 2.44 µM [1 test] and 12.3 µM, 1.38 µM, 2.69 µM [mean of 2 tests]
GI50 (U251 CNS): 344 nM [1 test] and 152 nM, 187 nM, 63.5 nM [mean of 2 tests]
GI50 (A498 renal): 7.5, 21.1, 38.7, 13.9 nM [separate samples]
TGI (A498 renal): 35.9, 139, 231, 53.5 nM [separate samples]
GI50 (MCF7 breast): 8.04 nM [1 test] and 7.5 nM, < 10.4 nM, < 10 nM [mean of 2 tests]
GI50 (HS 578T breast): 33.1 nM, 4.64 nM [1 test] and 20.3 nM, < 10 nM [mean of 2 tests]
TGI (HS 578T breast): 888 nM, 94 nM [1 test] and 639 nM, 250 nM [mean of 2 tests]
GI50 (HL-60(TB) leukemia): 6.05 nM [1 test] and 27.4 nM, 26.7 nM, < 10 nM [mean of 2 tests]
TGI (MDA-MB-231 breast): > 10 µM [1 test] and > 75 µM, 8.4 µM, 3.85 µM [mean of 2 tests]
GI50 (MALME-3M melanoma): 153 nM [1 test] and 27.7 nM, 33.6 nM, 43.6 nM [mean of 2 tests]
GI50 (SF-268 CNS): 199 nM [1 test] and 36.4 nM, 155 nM, 54.6 nM [mean of 2 tests]
